# Read counts are not given, so values of variants with three or more changes are uncertain.
# B1: OR4K15 (parent)
# chain: GUUAACGGUCAUAGGCCAUGGAAACUAGGAGCACCAUUUCGCUGCCAGUGAAGAAAUGAACAAAGAAAAUCUGGGCCAGGCAGGCAUCAAAAGAAAUAGUCUUGCGCUCAACCAGAAAGUCUGUAAUCAUUUUAAGGGUA
# Variants of: B1
# Assay: self-cleavage, relative activity (ratio to wild type); higher = more cleavage; in vitro, sequencing; the parent is a self-cleaving ribozyme
row,Variant,self-cleavage
1,A18U G65A A90G,0.08
2,A18G U19C U102C,1.17
3,U19C A30G A47U A92G A96C,0.21
4,A18U A36G A67G A129G,1.9
5,U19A U102C A125G,0.99
6,A18G U39C A51G,0.91
7,A18G A96G A129G,0.81
8,A18U A33G A52G A96G U100A,1.29
9,A18U A24U A59G,1.71
10,U19C A22G U38C U100C,1.32
11,U19C A68G A69G,1.15
12,U19A A90G A118G U122C,0.35
13,U19C A78G G106A A129C U133C,0
14,U19A C35U U39C,0.15
15,U19A U108C A116G A118G,0.01
16,U19C A51G U70C,0.76
17,U19C A33G U57C A67U A82G,0.42
18,A18U A51G A54G,0.92
19,U19C A52U A94G,0.82
20,A18U U37C A52G U102C,1.1
21,U19C A30G A67G A90G,0.73
22,A18U C46U A56G A91G,0.68
23,U19C A33G A62G A90U A118G,0.37
24,U19C A22G A24G U37C,0.51

row,Variant,self-cleavage
1,A18U A22U A24G A54G,0.96
2,U19C A59G A91G,1.35
3,A18G U37A U87C,1.11
4,A18U A69G A94U,1.13
5,U19C A27G A30G G48U U102C U132C,0.75
6,U19C A22G A67G G74A,0.13
7,U19A U37C A63U,1.42
8,A18G A78G U87C U102C,0.34
9,A18U A22G A23G A110G,0
10,U19A U49C A62G,1.15
11,U19A C32A A36U U103C U131C,0.14
12,A18U A86G U87C U108G,0.01
13,A18U U70C U100C,1.97
14,A18G U43C U108C,0.01
15,U19A A30G A59G G106U,0.04
16,A18U U39A A66G A67G,1.44
17,A18U A23G A60G U70A G79U,0.2
18,A18U A51U U70C,1.2
19,A18U A24G U100C,1.51
20,U19C A36U A55G A64G A68G A90G U127A,1.15
21,A18U A89G A94G,1.13
22,A18U A95G A98G U139C,1.36
23,A18U A52G A116G U139G,0.44
24,A18G U43C A89G,1.58

row,Variant,self-cleavage
1,U19C A51U U70A A82G A111G U120C,0.02
2,A18G G29C U103C,2.08
3,U19A A116G A135U,0.54
4,A18G U130C U133C A135G,2.07
5,U19C A52G U132C,1.37
6,U19C A24C A117G,0.65
7,U19A A52G A68G A118U,0.3
8,U19A A33U A51C G80U,0.2
9,U19A C35G A67U,2.42
10,U19C A22G A27G A63G A98G U100C A111U,0.36
11,A18G C45U U124A,0.51
12,U19A A33G A111G,0.05
13,A18U U37C A52G U103C,1.81
14,U19C A66U A69G A98G U108A U124A,0.02
15,U19C A24U U102C A118G,1.34
16,U19A A33G A68G A94G A135U,0.06
17,U19A A51G A54U U72C U100C C113A,0.02
18,U19C A117G A126G U131C,1.22
19,U19C A59G A134U,1.81
20,U19C A23G A89U A135U,1.1
21,A18G U38C A94G A111G,0.09
22,U19C A27G A96G A118G,1.02
23,U19A A96G G106A A110U,0
24,A18G A69G A96G A118G U131C,0.72

row,Variant,self-cleavage
1,U19C A55G A56U U132C,0.92
2,U19C A30G U37C U49A A59G U103C A134U,0.42
3,A18U A47U U72A A96C,0.12
4,U19A A22U A47C A66G A82U,0.24
5,A18U A60G A66G U87C A89G,0.43
6,A18U U39C A54G A66G A110G,0.12
7,U19C A22G A30G U122A A129C,0.9
8,A18U A63G U97C A116G U130C,0.24
9,U19C A22U A27G A55G U100C U122C,1.48
10,A18U U108C U132C,0
11,A18U A90G U103A A125C,0.05
12,A18G U49A G123C,0.43
13,A18U A91G A134G,1.27
14,A18U A36U A98G,1.23
15,U19A U102A U103A,0.04
16,U19C A68G A110G,0.22
17,U19A A59G A67U A78U,0.4
18,U19C A94G A114G,0.24
19,A18U A22U A33G A63G A89G U108A A117G,0.05
20,U19A A91G A96G,1.2
21,A18U A78G U132A,0.19
22,U19A A64U U120C U122C U132C,0.32
23,A18G U130C U132C,0.82
24,U19C A36U A52G A67U,0.89

row,Variant,self-cleavage
1,U19C A86G C112G U124C,0.02
2,U19A U72C A114U U131C,0.01
3,A18U A52G A66G A92G,1.03
4,A18G U49A U102A,0.57
5,A18U U26A U49C A91G,0.94
6,U19C A55G A90G,1.22
7,U19A A51G A126G,1.17
8,U19C A62G U70C U102C,1.33
9,U19A U87A A89G A94G,0.34
10,A18G A66G A94G,0.88
11,U19C C32U G115U A140U,0.1
12,U19C A33G U130C,0.75
13,A18U U37C U131C,0.91
14,A18G A67G A110G U131C,0.26
15,A18G A63G U130C,2.05
16,A18G U26A A63G,0.43
17,A18G A67G U130C,1.04
18,A18G A63G A78G A95U U133A,0.23
19,A18G A116G U120C,0.47
20,U19A U43C A62U A135C,1.06
21,U19C A86G U131C,0.88
22,U19C A56G A117G,0.21
23,U19C A64U A67G,0.99
24,A18G A86G G123A,1.81

row,Variant,self-cleavage
1,U19A A78G A94G A118C,0.18
2,U19C A30U G104A U108A A110G,0.01
3,U19C A22G A33U U102C A114U,0.02
4,U19C A24G A60G U131C U139C,1.03
5,A18U A24G A95C,0.83
6,A18U A68G A98G,0.28
7,A18U A59G U108C G123A,0.04
8,A18U A55G A126G,1.27
9,U19C C40A A55G,1.14
10,A18G G29A A33U A78U A118G U133C,0.42
11,U19C A64G U102C G106A,0.02
12,U19C A54G A94G,1.03
13,A18G U102C A111G,0
14,U19A A92G A114U U122A,0.02
15,A18G C45G U97C,1.03
16,A18U A22G A51G,1.51
17,U19C A59G U139C,0.73
18,U19A G73A U108C,0.01
19,A18U U38C G115U,0.07
20,A18U U39A U43C A59G A89G,0.64
21,A18G U19A U37C U103C,0.34
22,U19C A23G A118G,0.54
23,A18U A60G C88A,1.28
24,A18U U39C A91C,1

row,Variant,self-cleavage
1,A18G U19A A94G A114U,0.07
2,A18G A78C A95C A110G U139G,0.06
3,U19C A55G G58U A59U U122C U130C,0.58
4,A18G G44U A78U A117G,0.53
5,U19A G41A U49C,1.12
6,A18G U49A A62U,1.57
7,U19C A36C A66G U132C,2.07
8,A18G A78U U130A,0.08
9,A18G U38C A90G A111G,0.05
10,A18U U103C C128U,0
11,A18G A82G A91G A92G,0.46
12,U19A U38A G58U A63G,1.65
13,U19C A36G A55G A62U U103C,1.22
14,U19C A60G A95G,1.44
15,U19A U49A A91G U120C,0.49
16,U19C A22U A89C C101U,0.21
17,A18U A47G G48U A68G U72A U87C A111G U132C,0.01
18,U19C A30G A66U U131C,1.44
19,A18G U103C U132C,0.7
20,A18G G20U A54G A89G U120A,1.04
21,A18G U39A A51G A126U U127C,0.59
22,A18U A59G A69G G74A U100C,0.52
23,A18G A69G A96G,0.45

# From the RNAGym collection of RNA variant scans (doi:10.7554/elife.90254)
